Among all 310,000 compounds or so, about 14,000 (4.5%) showed an effect of 50% or more. The effect is printed as a negative number. This is one part of the list.
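Also: peak tail current of the secondary pulse compared with the same well before compound.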

human ether-à-go-go-related gene (hERG) potassium channel, sequence (Q12809 whole entry, looked up): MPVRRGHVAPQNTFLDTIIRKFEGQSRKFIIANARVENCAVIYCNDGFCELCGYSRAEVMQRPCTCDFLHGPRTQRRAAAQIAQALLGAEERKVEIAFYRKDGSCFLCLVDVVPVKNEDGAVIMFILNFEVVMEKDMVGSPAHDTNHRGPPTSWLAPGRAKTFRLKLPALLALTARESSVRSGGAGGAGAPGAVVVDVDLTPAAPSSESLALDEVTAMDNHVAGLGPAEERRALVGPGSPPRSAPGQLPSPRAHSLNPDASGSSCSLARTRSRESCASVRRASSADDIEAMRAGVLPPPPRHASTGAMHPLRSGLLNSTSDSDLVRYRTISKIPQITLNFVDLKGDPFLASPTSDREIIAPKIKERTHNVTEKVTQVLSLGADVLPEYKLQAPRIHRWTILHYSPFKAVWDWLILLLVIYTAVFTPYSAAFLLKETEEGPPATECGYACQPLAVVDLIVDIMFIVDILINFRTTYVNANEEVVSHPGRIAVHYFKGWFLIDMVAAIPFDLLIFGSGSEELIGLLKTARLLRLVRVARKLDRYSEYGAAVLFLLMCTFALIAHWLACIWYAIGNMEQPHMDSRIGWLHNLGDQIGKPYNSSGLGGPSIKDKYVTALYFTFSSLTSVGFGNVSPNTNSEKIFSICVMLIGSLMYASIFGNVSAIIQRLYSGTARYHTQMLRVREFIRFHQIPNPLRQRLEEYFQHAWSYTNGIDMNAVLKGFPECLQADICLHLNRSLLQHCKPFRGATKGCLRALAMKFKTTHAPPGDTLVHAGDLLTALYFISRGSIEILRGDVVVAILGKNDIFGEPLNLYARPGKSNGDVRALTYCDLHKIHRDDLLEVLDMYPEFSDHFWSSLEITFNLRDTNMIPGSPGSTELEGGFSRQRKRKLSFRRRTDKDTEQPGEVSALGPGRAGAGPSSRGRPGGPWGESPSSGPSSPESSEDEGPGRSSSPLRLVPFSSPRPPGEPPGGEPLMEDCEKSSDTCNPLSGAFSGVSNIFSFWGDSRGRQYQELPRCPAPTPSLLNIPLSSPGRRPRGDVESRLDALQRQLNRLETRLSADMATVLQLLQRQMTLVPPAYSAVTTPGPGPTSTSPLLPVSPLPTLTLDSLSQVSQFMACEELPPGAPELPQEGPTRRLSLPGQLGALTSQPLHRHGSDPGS

The assay addresses human ether-à-go-go-related gene (hERG) potassium channel (human, UniProt Q12809). Nature of the assay: primary screen, population patch clamp on CHO cells stably expressing hERG.
On to `Cc1ccc(C(c2c(C)[nH][nH]c2=O)c2c(C)[nH][nH]c2=O)cc1[N+](=O)[O-]`, for which the “hERG current change (%, negative = inhibition) at 10uM” value is 1.4%.
On to `O=C(CSc1ncnc2sc3c(c12)CCC3)Nc1ccccc1C(=O)O`, for which the “hERG current change (%, negative = inhibition) at 10uM” value is reported as -5.3%.
`CC(=O)NC(Cc1ccc(F)c(F)c1)C(=O)NC1CCN(C(=O)c2ccc(C)cc2)CC1` (stereo not shown): the “hERG current change (%, negative = inhibition) at 10uM” value was -12.9%.
Turning to `COc1cc(-c2nnc(COC(=O)C3c4ccccc4Oc4ccccc43)o2)cc(OC)c1OC`, the “hERG current change (%, negative = inhibition) at 10uM” value is -6.39%.
As for `CCOC(=O)c1oc2ccccc2c1CN1CCCCC1.Cl`, the “hERG current change (%, negative = inhibition) at 10uM” value was -55%.
`Cc1c(Cl)cccc1NC(=O)CC1Sc2ccccc2NC1=O` (stereo not shown): the “hERG current change (%, negative = inhibition) at 10uM” value is -3.01%.
Turning to `CC(C)(C)Cc1nnc(NS(=O)(=O)c2ccc(F)cc2)s1`, the “hERG current change (%, negative = inhibition) at 10uM” value is 0.129%.
For the compound `OCCC1CN(Cc2ccc3c(c2)CCO3)CCN1Cc1ccc(F)cc1` (stereo not shown), the “hERG current change (%, negative = inhibition) at 10uM” value is listed as -72.9%.
As for `CCCNC(=O)CCc1c(C)nc2c(c(C)nn2-c2ccccc2)c1C`, the figure is 0.304%.
As for `Cc1ccc(C2CCN(C(=S)Nc3cccc(Cl)c3)C2)cc1` (stereo not shown), the figure is 14.4%; as for `Cc1ccc(NC(=O)COc2cccc(-n3cnnn3)c2)cc1[N+](=O)[O-]`, -0.307%.
Consider `CC1(C)OC(=O)C(=C2CCCN2)C(=O)O1`, for which the “hERG current change (%, negative = inhibition) at 10uM” value is reported as 14.5%.
Under `Cc1ccnc(NS(=O)(=O)c2ccc(NS(=O)(=O)c3ccc(Br)cc3)cc2)n1` stands 3.66%; under `CC(=O)Nc1cc(C(=O)c2ccccc2)ccc1N1CCOCC1`, -7.94%; under `CC1(C)CC(=O)C=C(N=CC2=C(O)CC(C)(C)CC2=O)C1`, 3.3%.
On to `O=C(CSc1nc(-c2ccccc2)c(-c2ccccc2)[nH]1)Nc1nccs1`, for which the “hERG current change (%, negative = inhibition) at 10uM” value is listed as -6.71%.
Regarding `Cc1cc(=O)n(C)c2ccccc12`, the “hERG current change (%, negative = inhibition) at 10uM” value is 17.9%.
As for `CC(C)Oc1ccc(CNC(=S)Nc2ccccc2)cc1Cl`, the figure is 8.95%.
Regarding `O=C(CN1C(=O)COc2ccccc21)NCCN1CCOCC1`, the “hERG current change (%, negative = inhibition) at 10uM” value was determined as 11.3%.
Turning to `COc1ccc(CN(CCC(c2ccco2)C(C)C)C(C)=O)cc1OC` (stereo not shown), the “hERG current change (%, negative = inhibition) at 10uM” value was found to be 0.825%.
Take `O=[N+]([O-])c1cc(S(=O)(=O)Nc2ccccc2)ccc1-n1nnc2ccccc21`: the “hERG current change (%, negative = inhibition) at 10uM” value is listed as -4.1%.
As for `CCCCCCCCCCCCS[C@H]1CS(=O)(=O)C[C@@H]1O`, the “hERG current change (%, negative = inhibition) at 10uM” value was found to be 0.749%.
With `C#CCCOC(=O)N1C2=NC(C(=O)OC)=C(C(=O)OC)[C@@H]3N(C)c4ccccc4[C@]23C[C@H]1CO`, the “hERG current change (%, negative = inhibition) at 10uM” value is recorded as -1.23%.
For the compound `O=C(CSc1nc(-c2ccco2)cc(C(F)(F)F)n1)NN1CCOCC1`, the “hERG current change (%, negative = inhibition) at 10uM” value was 12.8%.
For the compound `Nc1cc(C(=O)OCC(=O)Nc2ccc(N3CCOCC3)cc2)ccc1Cl`, the “hERG current change (%, negative = inhibition) at 10uM” value is -4.47%.
On to `CC(C)(C)c1ccccc1OCCOCCN1CCCCCC1.O=C(O)C(=O)O`, for which the “hERG current change (%, negative = inhibition) at 10uM” value is -39.1%.
Under `C=CCOC(=O)C1=C[C@@H](c2ccccc2)C[C@@H](OCc2ccc(CO)cc2)O1` stands -11.9%; under `COc1ccc(/C=N/NC(=O)CCn2nc(C)cc2C)cc1`, -5.38%.
As to `Cc1ccc(CNC(=O)COC(=O)c2cncc(Br)c2)cc1`, the “hERG current change (%, negative = inhibition) at 10uM” value is 10%.
As for `COc1cccc(NC(=O)CNC(=O)c2ccc(C)o2)c1`, the “hERG current change (%, negative = inhibition) at 10uM” value is 6.41%.
In the case of `CC(C)(C)c1cc(C(=O)NNC(=O)Nc2ccccc2)n(Cc2ccccc2)n1`, the “hERG current change (%, negative = inhibition) at 10uM” value was 11.1%.
Under `O=C(CCN1C(=O)/C(=C\C=C\c2ccccc2)SC1=S)Nc1cccc(C(=O)O)c1` stands 13.6%; under `O=C(Nc1ccc([N+](=O)[O-])cc1)c1cc(-c2ccccn2)nc2c(Cl)cccc12`, 33%.
For the compound `O=C(COc1ccc2c(c1)oc(=O)c1ccccc12)N[C@@H](Cc1ccccc1)C(=O)O`, the “hERG current change (%, negative = inhibition) at 10uM” value was -1.31%.
`O=C1CCCCC1Sc1ccc(Cl)cc1[N+](=O)[O-]` (stereo not shown): the “hERG current change (%, negative = inhibition) at 10uM” value is 25.9%.
Regarding `COc1ccc(/C(C)=N/OC/C(O)=C(\C#N)c2nc3ccccc3[nH]2)cc1`, the “hERG current change (%, negative = inhibition) at 10uM” value worked out at 13%.
For `COCCCNc1oc(-c2cccs2)nc1S(=O)(=O)c1ccc(C)cc1`, the “hERG current change (%, negative = inhibition) at 10uM” value is -15.2%.
`O=C(O)CSc1nc2c(c(=O)[nH]1)CCCC2`: the “hERG current change (%, negative = inhibition) at 10uM” value is 21.7%.
For `CCn1c(C)c(C)c2cc(C(=O)N3CCc4ccccc4C3)ccc21`, the “hERG current change (%, negative = inhibition) at 10uM” value is reported as -8.3%.
In the case of `O=C(C1=C[C@H](c2ccc3c(c2)OCO3)C[C@H](OCCCCO)O1)N1CCN(Cc2ccccc2)CC1`, the “hERG current change (%, negative = inhibition) at 10uM” value was -62.8%.
Consider `Cc1ccccc1NC(=O)CN(C)S(=O)(=O)c1cccs1`, for which the “hERG current change (%, negative = inhibition) at 10uM” value came to 2.52%.
Take `O=C(Nc1cccc(F)c1)/C(=C\c1cccnc1)NC(=O)c1ccco1`: the “hERG current change (%, negative = inhibition) at 10uM” value was -22.4%.
Consider `CC(C)c1cccc(C(C)C)c1NC(=O)CCl`, for which the “hERG current change (%, negative = inhibition) at 10uM” value was 5.87%.
On to `O=c1[nH]c(CSc2ncn[nH]2)nc2ccccc12`, for which the “hERG current change (%, negative = inhibition) at 10uM” value was found to be 19.7%.
As for `Cc1cc(C)c2nc(Cl)c(C3NC(=O)c4ccccc4N3)cc2c1` (stereo not shown), the figure is 10%; as for `O=C(CSc1nnc(CN2CCOCC2)n1-c1ccc(Cl)cc1)Nc1ccc2c(c1)OCO2`, -9.87%; as for `Cc1ccc(C)c(CN2CCC(CNC(=O)Nc3cccc(Cl)c3C)CC2)c1`, -43.1%.
As for `O=C(Nc1nn[nH]n1)c1cccc(Oc2ccccc2)c1`, the “hERG current change (%, negative = inhibition) at 10uM” value amounted to 15.3%.
As for `COC(=O)c1cccc(C(=O)N2CCCC(Nc3ccc(C)c(C)c3)C2)c1` (stereo not shown), the figure is -5.33%.
Regarding `COc1ccc(NC(=O)CSc2nc(-c3ccc(C)cc3)cc(C(F)(F)F)c2C#N)cc1`, the “hERG current change (%, negative = inhibition) at 10uM” value is listed as 27.7%.
As to `CCCCN(C(=O)C(C)N1C(=O)c2ccccc2C1=O)c1c(N)n(CCCC)c(=O)[nH]c1=O` (stereo not shown), the “hERG current change (%, negative = inhibition) at 10uM” value is recorded as 12.9%.
With `O=c1c2c(nc3nc(SCc4ccccc4)[nH]n13)CCC2`, the “hERG current change (%, negative = inhibition) at 10uM” value is -17.4%.
Turning to `COC(=O)c1cc(-c2ccc(Br)cc2)c2c(=O)[nH]c(=O)n(C)c2n1`, the “hERG current change (%, negative = inhibition) at 10uM” value is reported as 13.1%.
Regarding `COc1ccc(/C=N/NC(=O)c2nn(-c3ccc(C)c(C)c3)c(=O)c3ccccc23)cc1`, the “hERG current change (%, negative = inhibition) at 10uM” value was found to be 0.56%.
Consider `COc1ccc2[nH]c3c(c2c1)CCN1C(=O)N([C@@H](C)C(=O)NCc2ccco2)C(=O)[C@]31C`, for which the “hERG current change (%, negative = inhibition) at 10uM” value is -53.8%.
Under `Cc1ccccc1C(=O)N1N=C(c2ccc(NS(C)(=O)=O)cc2)CC1c1cccs1` (stereo not shown) stands -26.1%; under `COc1cc(/C=N/NC(=O)c2cccnc2)ccc1OCC(=O)Nc1c(C)cc(C)cc1C`, 14%; under `CN1CCN(C(=O)Nc2cccc(-c3ccccc3)c2)CC1`, -3.63%.
For the compound `CCO.Cc1[nH]nc2c1C(c1cccs1)C1=C(CCCC1=O)N2` (stereo not shown), the “hERG current change (%, negative = inhibition) at 10uM” value is on record as 19.7%.
As to `CCC(C)c1ccc(N2C(=O)NC(=O)/C(=C/c3cccn3CCOc3ccc(C)cc3)C2=O)cc1` (stereo not shown), the “hERG current change (%, negative = inhibition) at 10uM” value is 24.1%.
For `O=C(CSc1nnc2ccccn12)Nc1nsc(-c2ccccc2)n1`, the “hERG current change (%, negative = inhibition) at 10uM” value was determined as 7.47%.
Under `Cc1c(O)c(=O)ccn1C` stands 15.2%.
As for `CCOc1cc(/C=C2/NC(=O)N(Cc3ccccc3F)C2=O)ccc1O`, the “hERG current change (%, negative = inhibition) at 10uM” value is 2.73%.
As for `COC(=O)c1ccc(NC(=O)C(C)Oc2ccccc2)cc1` (stereo not shown), the figure is -4.67%; as for `COc1ccc(OC(=O)c2cc3cc(Cl)ccc3oc2=O)cc1`, 7.17%; as for `CCC(C)NC(=O)CSc1nnc(-c2cc(OC)c(OC)c(OC)c2)c(-c2cc(OC)c(OC)c(OC)c2)n1` (stereo not shown), 10.6%.
In the case of `Cc1ccc(-c2oc3ccccc3c(=O)c2O)cc1`, the “hERG current change (%, negative = inhibition) at 10uM” value was 13.1%.
For the compound `COc1ccc(C2=CC(=O)C[C@H](c3ccc(OC)c(OC)c3)C2)cc1`, the “hERG current change (%, negative = inhibition) at 10uM” value came to 4.86%.
As for `O=C(CN1CCN(S(=O)(=O)c2cccc(Br)c2)CC1)NCCc1cccs1`, the figure is -37.6%; as for `O=C(COc1ccc(F)cc1)Nc1nnc(-c2ccncc2)s1`, -6.52%.
Regarding `COc1ccccc1N1CCN(C(c2cc3ccc(C)cc3[nH]c2=O)c2nnnn2C2CCCC2)CC1` (stereo not shown), the “hERG current change (%, negative = inhibition) at 10uM” value was -25%.
Regarding `CC(=O)Nc1ccc(NC(=O)C(C)OC(=O)C2CCCCC2)cc1` (stereo not shown), the “hERG current change (%, negative = inhibition) at 10uM” value is recorded as -30.7%.
Turning to `O=C(N/N=C\c1cccc(F)c1)c1ccc(Cn2cc(Br)c([N+](=O)[O-])n2)o1`, the “hERG current change (%, negative = inhibition) at 10uM” value was -33.9%.
As for `COc1cccc2cc(C(C)N(CCCN3CCOCC3)C(=S)Nc3ccc(C)cc3)oc12` (stereo not shown), the “hERG current change (%, negative = inhibition) at 10uM” value was -22.8%.
Take `Cc1ccc(NC(=O)CN(C)C(=O)c2ccccc2OCc2c(C)noc2C)cc1`: the “hERG current change (%, negative = inhibition) at 10uM” value was determined as 0.00928%.
With `COC(=O)C1C2C=CC3(CN(CCc4ccccc4)C(=O)C13)O2` (stereo not shown), the “hERG current change (%, negative = inhibition) at 10uM” value is listed as 10.7%.
Turning to `CCN(CC(=O)Nc1ccc(OC)cc1)C(=O)Cc1coc2cc(C)c(C)cc12`, the “hERG current change (%, negative = inhibition) at 10uM” value is given as -16%.
For the compound `CC1(C)NC(=O)N(CCOCCOc2c(Cl)cc(Cl)cc2Cl)C1=O`, the “hERG current change (%, negative = inhibition) at 10uM” value was -11.4%.
On to `CC(C)CC(=O)N1CCC(O)(CS(=O)(=O)Cc2ccc(Cl)cc2)CC1`, for which the “hERG current change (%, negative = inhibition) at 10uM” value was -15.7%.
In the case of `O=[N+]([O-])c1ccccc1S(=O)(=O)N1CCN(C2CCN(Cc3ccccc3)CC2)CC1`, the “hERG current change (%, negative = inhibition) at 10uM” value is -51.9%.
Under `COc1cccc(/C=N/NC(=O)C(C)n2nc(C)c([N+](=O)[O-])c2C)c1O` (stereo not shown) stands -4.81%; under `Cc1nn(Cc2ccccc2)c(C)c1NC(=O)c1cc(-c2ccc3c(c2)OCO3)on1`, 0.15%.
For `Cc1ccc(NC(=O)CN(C)C(=O)Cc2ccc(Cl)c(Cl)c2)cc1`, the “hERG current change (%, negative = inhibition) at 10uM” value came to 11.8%.
For `CC(C)(C)N(Cc1ccccc1)C(=O)c1ccc(Br)o1`, the “hERG current change (%, negative = inhibition) at 10uM” value is 11.4%.
With `O=C(O)[C@H]1CCCC[C@H]1C(=O)Nc1cc([N+](=O)[O-])ccc1F`, the “hERG current change (%, negative = inhibition) at 10uM” value is 15.6%.

Source of the values: PMC4336329 (PLoS ONE, 2015).
